Paper PMC10959724
Results are given in words; binding and its absence hold for the method and conditions named. Binding seen in cells or lysates may run through a third protein. Some binding calls cover weakened binding; strength is not graded here. Sequences can lack the tags named with a protein.

Sequences of proteins named here, by UniProt entry; tags and fusion partners are left off.
UniProt Q96CV9: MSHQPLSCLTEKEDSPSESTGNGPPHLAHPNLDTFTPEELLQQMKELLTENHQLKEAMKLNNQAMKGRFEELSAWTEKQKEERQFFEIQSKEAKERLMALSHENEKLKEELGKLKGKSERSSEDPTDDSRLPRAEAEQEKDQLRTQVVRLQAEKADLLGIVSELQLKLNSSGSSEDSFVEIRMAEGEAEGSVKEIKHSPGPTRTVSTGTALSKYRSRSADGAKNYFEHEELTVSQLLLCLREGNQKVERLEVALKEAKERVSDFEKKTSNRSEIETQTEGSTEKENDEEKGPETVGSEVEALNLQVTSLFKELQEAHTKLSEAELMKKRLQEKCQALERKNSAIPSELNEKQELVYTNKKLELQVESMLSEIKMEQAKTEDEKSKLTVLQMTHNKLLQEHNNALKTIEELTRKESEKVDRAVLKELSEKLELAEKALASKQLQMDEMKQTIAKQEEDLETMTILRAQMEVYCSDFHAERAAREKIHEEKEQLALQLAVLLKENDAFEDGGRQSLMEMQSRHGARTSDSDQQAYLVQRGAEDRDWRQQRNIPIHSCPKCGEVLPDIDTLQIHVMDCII

T1: TRAF family member-associated NF-kB activator (TANK), NanoLuc-tagged (UniProt Q92844)
T1 sequence: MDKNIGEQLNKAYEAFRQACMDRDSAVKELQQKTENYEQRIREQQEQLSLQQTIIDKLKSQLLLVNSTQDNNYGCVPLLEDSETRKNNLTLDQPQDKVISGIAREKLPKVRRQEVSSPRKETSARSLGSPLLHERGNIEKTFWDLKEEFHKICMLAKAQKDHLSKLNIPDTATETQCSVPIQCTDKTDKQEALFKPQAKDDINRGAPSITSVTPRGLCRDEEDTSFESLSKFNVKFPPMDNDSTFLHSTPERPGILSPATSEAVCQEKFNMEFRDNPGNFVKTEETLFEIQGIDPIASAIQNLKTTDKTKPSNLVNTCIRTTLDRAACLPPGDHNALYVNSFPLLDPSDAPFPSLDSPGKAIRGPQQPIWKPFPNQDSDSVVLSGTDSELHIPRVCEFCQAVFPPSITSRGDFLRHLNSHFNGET


Columns and labels:
Assay in all cases: FRET or BRET; LuTHy-BRET in live HEK293 cells, 48 h after transfection; optineurin or TANK as NanoLuc donors, TBK1 and mutants as mCitrine-Protein A acceptors; donor saturation assays (increasing acceptor plasmid, constant donor) and single-point assays (acceptor in excess); positive if corrected BRET ratio >= 0.01
[1] = molecular target: T1, TRAF family member-associated NF-kB activator (TANK), NanoLuc-tagged
[2] = molecular target: optineurin, NanoLuc-tagged (UniProt Q96CV9)
[3] = molecular target: optineurin, NanoLuc-tagged, Q96CV9; settings: remark: other sources report otherwise

Row | Binder | binding [1] | binding [2] | binding [3]
1 | wildtype TBK1 (TANK-binding kinase 1), mCitrine-Protein A fusion (enzyme, UniProt Q9UHD2 1-729) MQSTSNHLWLLSDILGQGATANVFRGRHKKTGDLFAIKVFNNISFLRPVDVQMREFEVLKKLNHKNIVKLFAIEEETTTRHKVLIMEFCPCGSLYTVLEEPSNAYGLPESEFLIVLRDVVGGMNHLRENGIVHRDIKPGNIMRVIGEDGQSVYKLTDFGAARELEDDEQFVSLYGTEEYLHPDMYERAVLRKDHQKKYGATVDLWSIGVTFYHAATGSLPFRPFEGPRRNKEVMYKIITGKPSGAISGVQKAENGPIDWSGDMPVSCSLSRGLQVLLTPVLANILEADQEKCWGFDQFFAETSDILHRMVIHVFSLQQMTAHKIYIHSYNTATIFHELVYKQTKIISSNQELIYEGRRLVLEPGRLAQHFPKTTEENPIFVVSREPLNTIGLIYEKISLPKVHPRYDLDGDASMAKAITGVVCYACRIASTLLLYQELMRKGIRWLIELIKDDYNETVHKKTEVVITLDFCIRNIEKTVKVYEKLMKINLEAAELGEISDIHTKLLRLSSSQGTIETSLQDIDSRLSPGGSLADAWAHQEGTHPKDRNVEKLQVLLNCMTEIYYQFKKDKAERRLAYNEEQIHKFDKQKLYYHATKAMTHFTDECVKKYEAFLNKSEEWIRKMLHLRKQLLSLTNQCFDIEEEVSKYQEYTNELQETLPQKMFTASSGIKHTMTPIYPSSNTLVEMTLGMKKLKEEMEGVVKELAENNHILERFGSLTMDGGLRNVDCL | binds | binds | –
2 | TBK1 p.E696K variant, mCitrine-Protein A fusion (enzyme, UniProt Q9UHD2 1-729) MQSTSNHLWLLSDILGQGATANVFRGRHKKTGDLFAIKVFNNISFLRPVDVQMREFEVLKKLNHKNIVKLFAIEEETTTRHKVLIMEFCPCGSLYTVLEEPSNAYGLPESEFLIVLRDVVGGMNHLRENGIVHRDIKPGNIMRVIGEDGQSVYKLTDFGAARELEDDEQFVSLYGTEEYLHPDMYERAVLRKDHQKKYGATVDLWSIGVTFYHAATGSLPFRPFEGPRRNKEVMYKIITGKPSGAISGVQKAENGPIDWSGDMPVSCSLSRGLQVLLTPVLANILEADQEKCWGFDQFFAETSDILHRMVIHVFSLQQMTAHKIYIHSYNTATIFHELVYKQTKIISSNQELIYEGRRLVLEPGRLAQHFPKTTEENPIFVVSREPLNTIGLIYEKISLPKVHPRYDLDGDASMAKAITGVVCYACRIASTLLLYQELMRKGIRWLIELIKDDYNETVHKKTEVVITLDFCIRNIEKTVKVYEKLMKINLEAAELGEISDIHTKLLRLSSSQGTIETSLQDIDSRLSPGGSLADAWAHQEGTHPKDRNVEKLQVLLNCMTEIYYQFKKDKAERRLAYNEEQIHKFDKQKLYYHATKAMTHFTDECVKKYEAFLNKSEEWIRKMLHLRKQLLSLTNQCFDIEEEVSKYQEYTNELQETLPQKMFTASSGIKHTMTPIYPSSNTLVEMTLGMKKLKEKMEGVVKELAENNHILERFGSLTMDGGLRNVDCL | binds | – | –
3 | TBK1 R47H kinase domain mutant, mCitrine-Protein A fusion (enzyme, UniProt Q9UHD2 1-729) MQSTSNHLWLLSDILGQGATANVFRGRHKKTGDLFAIKVFNNISFLHPVDVQMREFEVLKKLNHKNIVKLFAIEEETTTRHKVLIMEFCPCGSLYTVLEEPSNAYGLPESEFLIVLRDVVGGMNHLRENGIVHRDIKPGNIMRVIGEDGQSVYKLTDFGAARELEDDEQFVSLYGTEEYLHPDMYERAVLRKDHQKKYGATVDLWSIGVTFYHAATGSLPFRPFEGPRRNKEVMYKIITGKPSGAISGVQKAENGPIDWSGDMPVSCSLSRGLQVLLTPVLANILEADQEKCWGFDQFFAETSDILHRMVIHVFSLQQMTAHKIYIHSYNTATIFHELVYKQTKIISSNQELIYEGRRLVLEPGRLAQHFPKTTEENPIFVVSREPLNTIGLIYEKISLPKVHPRYDLDGDASMAKAITGVVCYACRIASTLLLYQELMRKGIRWLIELIKDDYNETVHKKTEVVITLDFCIRNIEKTVKVYEKLMKINLEAAELGEISDIHTKLLRLSSSQGTIETSLQDIDSRLSPGGSLADAWAHQEGTHPKDRNVEKLQVLLNCMTEIYYQFKKDKAERRLAYNEEQIHKFDKQKLYYHATKAMTHFTDECVKKYEAFLNKSEEWIRKMLHLRKQLLSLTNQCFDIEEEVSKYQEYTNELQETLPQKMFTASSGIKHTMTPIYPSSNTLVEMTLGMKKLKEEMEGVVKELAENNHILERFGSLTMDGGLRNVDCL | binds | binds | –
4 | TBK1 p.E696K variant, mCitrine-Protein A fusion, Q9UHD2 1-729 (enzyme) MQSTSNHLWLLSDILGQGATANVFRGRHKKTGDLFAIKVFNNISFLRPVDVQMREFEVLKKLNHKNIVKLFAIEEETTTRHKVLIMEFCPCGSLYTVLEEPSNAYGLPESEFLIVLRDVVGGMNHLRENGIVHRDIKPGNIMRVIGEDGQSVYKLTDFGAARELEDDEQFVSLYGTEEYLHPDMYERAVLRKDHQKKYGATVDLWSIGVTFYHAATGSLPFRPFEGPRRNKEVMYKIITGKPSGAISGVQKAENGPIDWSGDMPVSCSLSRGLQVLLTPVLANILEADQEKCWGFDQFFAETSDILHRMVIHVFSLQQMTAHKIYIHSYNTATIFHELVYKQTKIISSNQELIYEGRRLVLEPGRLAQHFPKTTEENPIFVVSREPLNTIGLIYEKISLPKVHPRYDLDGDASMAKAITGVVCYACRIASTLLLYQELMRKGIRWLIELIKDDYNETVHKKTEVVITLDFCIRNIEKTVKVYEKLMKINLEAAELGEISDIHTKLLRLSSSQGTIETSLQDIDSRLSPGGSLADAWAHQEGTHPKDRNVEKLQVLLNCMTEIYYQFKKDKAERRLAYNEEQIHKFDKQKLYYHATKAMTHFTDECVKKYEAFLNKSEEWIRKMLHLRKQLLSLTNQCFDIEEEVSKYQEYTNELQETLPQKMFTASSGIKHTMTPIYPSSNTLVEMTLGMKKLKEKMEGVVKELAENNHILERFGSLTMDGGLRNVDCL | – | – | no binding
5 | TBK1 del689-714, mCitrine-Protein A fusion (enzyme, UniProt Q9UHD2) MQSTSNHLWLLSDILGQGATANVFRGRHKKTGDLFAIKVFNNISFLRPVDVQMREFEVLKKLNHKNIVKLFAIEEETTTRHKVLIMEFCPCGSLYTVLEEPSNAYGLPESEFLIVLRDVVGGMNHLRENGIVHRDIKPGNIMRVIGEDGQSVYKLTDFGAARELEDDEQFVSLYGTEEYLHPDMYERAVLRKDHQKKYGATVDLWSIGVTFYHAATGSLPFRPFEGPRRNKEVMYKIITGKPSGAISGVQKAENGPIDWSGDMPVSCSLSRGLQVLLTPVLANILEADQEKCWGFDQFFAETSDILHRMVIHVFSLQQMTAHKIYIHSYNTATIFHELVYKQTKIISSNQELIYEGRRLVLEPGRLAQHFPKTTEENPIFVVSREPLNTIGLIYEKISLPKVHPRYDLDGDASMAKAITGVVCYACRIASTLLLYQELMRKGIRWLIELIKDDYNETVHKKTEVVITLDFCIRNIEKTVKVYEKLMKINLEAAELGEISDIHTKLLRLSSSQGTIETSLQDIDSRLSPGGSLADAWAHQEGTHPKDRNVEKLQVLLNCMTEIYYQFKKDKAERRLAYNEEQIHKFDKQKLYYHATKAMTHFTDECVKKYEAFLNKSEEWIRKMLHLRKQLLSLTNQCFDIEEEVSKYQEYTNELQETLPQKMFTASSGIKHTMTPIYPSSNTLVEMTLGSLTMDGGLRNVDCL | no binding | no binding | –
